Source: the supplement of paper PMC6531468
The other results are listed elsewhere or left out. Read counts after selection give these values, which scatter widely. Scores sum up all selected molecules that hold the word; the word was not tested alone.

Tests used:
Assay in all cases: 6-mer SELEX enrichment z-score vs GST control; IMP3 is the RNA-binding protein IGF2BP3; higher = more enriched by binding
IMP3 KH1-4 = conditions: construct: KH1-4 (164-579); SELEX round: R4
Procedure: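 SELEX-seq with GST-tagged IMP3 KH1-4 (Pro164-Lys579) and an N40 RNA pool, round 4. 6-mer z-score of sequence-tag enrichment normalised to the corresponding GST SELEX round; RNA k-mers written as DNA (T for U).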

IMP3 RRM1-2 = conditions: construct: RRM1-2 (1-163); SELEX round: R2
Procedure: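 SELEX-seq with GST-tagged IMP3 RRM1-2 (Met1-Asn163) and an N40 RNA pool, round 2. 6-mer enrichment z-score normalised to GST SELEX. RNA written as DNA (T = U).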

IMP3 full-length = IMP3 full-length (UniProt O00425); conditions: construct: FL IMP3 (1-579); SELEX round: R4
Procedure: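 SELEX-seq with GST-tagged full-length IMP3 and an N40 RNA pool, round 4. Each 6-mer is scored as an enrichment z-score of sequence tags containing it, normalised to the matching GST SELEX round. RNA written as DNA (T = U).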

IMP3 KH1-2 = conditions: construct: KH1-2 (164-376); SELEX round: R4
Procedure: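 SELEX-seq with GST-tagged IMP3 KH1-2 (Pro164-Phe376) and an N40 RNA pool, round 4 (stringent 300/600 mM KCl washes). 6-mer z-score of sequence-tag enrichment normalised to the corresponding GST SELEX round; RNA k-mers written as DNA (T for U).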

IMP3 KH3-4 = conditions: construct: KH3-4 (377-579); SELEX round: R4
Procedure: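 SELEX-seq with GST-tagged IMP3 KH3-4 (Pro377-Lys579) and an N40 RNA pool, round 4. 6-mer z-score of sequence-tag enrichment normalised to the corresponding GST SELEX round; RNA k-mers written as DNA (T for U).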

Chain of IMP3 KH3-4 (chain, as listed by the source): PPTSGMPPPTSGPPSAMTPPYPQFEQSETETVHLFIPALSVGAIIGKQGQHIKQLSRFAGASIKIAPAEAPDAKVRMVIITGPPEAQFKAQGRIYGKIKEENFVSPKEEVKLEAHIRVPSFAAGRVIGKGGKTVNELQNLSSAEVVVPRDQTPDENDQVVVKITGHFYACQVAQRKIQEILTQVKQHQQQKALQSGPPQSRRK
Chain of IMP3 KH1-4 (chain, as listed by the source): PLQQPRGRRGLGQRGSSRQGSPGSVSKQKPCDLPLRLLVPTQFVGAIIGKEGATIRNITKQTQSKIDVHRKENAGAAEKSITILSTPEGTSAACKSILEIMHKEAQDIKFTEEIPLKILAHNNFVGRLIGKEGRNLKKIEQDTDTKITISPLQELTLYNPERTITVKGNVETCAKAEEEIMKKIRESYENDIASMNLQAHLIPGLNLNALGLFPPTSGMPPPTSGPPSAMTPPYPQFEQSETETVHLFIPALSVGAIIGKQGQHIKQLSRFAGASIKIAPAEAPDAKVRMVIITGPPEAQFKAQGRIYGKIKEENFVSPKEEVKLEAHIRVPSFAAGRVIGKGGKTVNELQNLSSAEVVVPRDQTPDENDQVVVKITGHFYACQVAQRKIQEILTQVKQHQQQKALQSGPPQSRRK
Chain of IMP3 RRM1-2 (chain, as listed by the source): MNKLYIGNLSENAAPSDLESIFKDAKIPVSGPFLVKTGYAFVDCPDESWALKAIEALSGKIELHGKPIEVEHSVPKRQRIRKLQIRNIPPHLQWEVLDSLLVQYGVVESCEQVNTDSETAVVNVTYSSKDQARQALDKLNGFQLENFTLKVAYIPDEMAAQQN
Chain of IMP3 KH1-2 (chain, as listed by the source): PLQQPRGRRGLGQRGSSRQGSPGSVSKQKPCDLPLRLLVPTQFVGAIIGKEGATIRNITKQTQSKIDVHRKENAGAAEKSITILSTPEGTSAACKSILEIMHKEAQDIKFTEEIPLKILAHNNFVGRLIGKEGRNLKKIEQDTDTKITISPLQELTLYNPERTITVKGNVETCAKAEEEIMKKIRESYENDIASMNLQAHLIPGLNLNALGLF
Chain of UniProt O00425 (O00425 whole entry): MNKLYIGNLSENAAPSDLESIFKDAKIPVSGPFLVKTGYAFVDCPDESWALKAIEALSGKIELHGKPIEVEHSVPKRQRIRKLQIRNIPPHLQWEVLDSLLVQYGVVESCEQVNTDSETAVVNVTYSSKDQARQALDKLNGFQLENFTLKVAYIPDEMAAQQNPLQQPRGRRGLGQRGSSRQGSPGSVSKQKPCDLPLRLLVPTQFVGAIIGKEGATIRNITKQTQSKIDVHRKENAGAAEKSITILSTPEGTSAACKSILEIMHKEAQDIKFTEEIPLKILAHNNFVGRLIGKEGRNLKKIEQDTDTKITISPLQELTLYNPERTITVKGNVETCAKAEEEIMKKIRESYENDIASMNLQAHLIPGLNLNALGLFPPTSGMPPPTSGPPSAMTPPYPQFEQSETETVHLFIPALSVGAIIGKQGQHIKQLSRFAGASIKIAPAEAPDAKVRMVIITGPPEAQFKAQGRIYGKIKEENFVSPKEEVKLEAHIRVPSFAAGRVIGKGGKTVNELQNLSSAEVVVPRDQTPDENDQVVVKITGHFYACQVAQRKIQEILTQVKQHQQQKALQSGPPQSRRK

Sequence	6-mer SELEX enrichment z-score (IMP3 KH1-4)	6-mer SELEX enrichment z-score (IMP3 RRM1-2)	6-mer SELEX enrichment z-score (IMP3 full-length)	6-mer SELEX enrichment z-score (IMP3 KH1-2)	6-mer SELEX enrichment z-score (IMP3 KH3-4)
GGTGTA	-0.504	0.165	-0.215	-0.411	-0.228
CGGATA	0.203	-0.406	-0.089	0.08	0.399
AACTCT	-0.338	-0.279	-0.658	-0.182	-0.44
TTTGCA	0.879	0.245	0.353	0.641	0.641
CAAGTC	-0.016	0.38	0.435	-0.249	-0.345
ATCAAG	-0.454	1.04	0.364	-0.542	-0.316
CGCGGG	-0.206	0.038	0.547	0.145	-0.031
GCCTAT	0.024	-0.003	-0.111	0.017	0.137
GTGGCA	0.959	0.26	1.2	0.727	0.881
AGTGGT	-0.008	0.285	0.032	0.006	0.124
TAATGG	0.664	-0.09	0.039	0.443	0.997
GATGAC	0.349	-0.952	-0.483	0.086	0.163
TCTGGT	0.004	0.554	0.213	0.066	0.146
TCCTTA	0.795	-0.006	-0.095	0.683	0.68
CCTGTT	0.004	-0.041	-0.276	-0.043	-0.153
TACGGT	0.243	0.205	0.103	0.099	0.191
GCCCGC	-0.829	-0.145	-0.009	-0.496	-1.09
CCGTTC	0.128	0.05	0.297	0.326	-0.24
CTGCAT	0.495	0.362	0.622	0.384	0.152
CCCGTC	-0.771	-0.067	0.081	-0.589	-1.02
TATAGA	1.1	-0.385	0.067	0.913	1.73
GATTCA	0.943	0.527	0.845	0.836	0.799
CCAGGG	-0.326	-0.134	-0.053	-0.159	-0.332

Sequence	6-mer SELEX enrichment z-score (IMP3 KH1-4)	6-mer SELEX enrichment z-score (IMP3 RRM1-2)	6-mer SELEX enrichment z-score (IMP3 full-length)	6-mer SELEX enrichment z-score (IMP3 KH1-2)	6-mer SELEX enrichment z-score (IMP3 KH3-4)
TTATCC	-0.03	-0.024	-0.453	-0.127	-0.286
AGCAGA	-0.244	0.299	0.339	-0.145	-0.153
GTTGCG	-0.425	0.296	-0.247	-0.419	-0.291
ACATGA	1.88	0.748	1.34	1.61	2.02
CGCGGT	-0.287	0.193	0.065	-0.258	-0.175
TAAAGT	0.19	-0.51	-0.416	-0.036	0.489
CTCCGC	-0.403	-0.072	0.074	0.021	-0.714
TTAAGC	-0.259	0.023	-0.483	-0.287	-0.037
CCGTAA	-0.648	-0.935	-0.741	-0.463	-0.704
CACTAC	1.07	2.15	0.636	1.27	0.408
CTTGCC	-0.666	0.17	-0.485	-0.628	-0.861
CCAACG	-2.19	-0.975	-1.61	-2.12	-2.52
CCTCGA	-1.94	-0.291	-0.897	-1.71	-1.79
CGGCAA	1.83	0.052	2.47	0.99	1.57
GTCCGA	-0.985	-0.322	-0.242	-0.873	-0.896
GCTATC	-0.184	0.353	0.126	-0.133	-0.146
TTTAAG	0.351	-0.136	-0.226	0.233	0.897
TAATCT	0.497	0.121	0.039	0.41	0.559
GTGAAG	0.175	-0.538	-0.361	0.084	0.225
AAGGGT	-0.066	-0.161	-0.07	0.008	0.175
TGCGGA	-0.237	-0.159	-0.134	-0.232	-0.147
GCATGG	0.425	0.537	0.964	0.328	0.253
